To fix the notation:
B1: OR4K15 (parent)
chain: GUUAACGGUCAUAGGCCAUGGAAACUAGGAGCACCAUUUCGCUGCCAGUGAAGAAAUGAACAAAGAAAAUCUGGGCCAGGCAGGCAUCAAAAGAAAUAGUCUUGCGCUCAACCAGAAAGUCUGUAAUCAUUUUAAGGGUA

The source gives no read counts; variants with many changes may rest on few reads.

In the data set the parent is B1. In words: self-cleavage, relative activity (ratio to wild type); higher = more cleavage; in vitro, sequencing; the parent is a self-cleaving ribozyme.
In the case of GUUAACGGUCAUAGGCCAUGGAAACUAGGAGCACCAUUUCGCUGCCGGUGUAGAGAUGAACAAAGAAAAUCUGGGCCAGGCAGGCAUCAAAAGAAAUAGUCUUGCGCUCACCCAGAAAGUCUGUAAUCACUUUAAGGGUA [A47G A51U A55G A111C U130C], the self-cleavage amounted to 0.03.
The value for GUUAACGGUCAUAGGCCAUGGAAACUAGGAGCACCAUUUCGCUGCCGGUGAAGAAAUGAACAGAGAAAAUCUGGGCCAGGCAGGCAUCUAAAGAAAUAGUCUUGCGCUCAACCAGAAAGUCCGUAAUCAUUUUGAGGGUA [A47G A63G A89U U122C A134G] was 1.07.
The value for GUUAACGGUCAUAGGCCAUGGAAACUAGGAGCACCAUUUCGCUGCCGGUGUAGAAAUGAACGAAGAAGUUCUGGGCCAGGCGGGCAUCAAAAGAAAUAGUCUUGCGCUCAACCAGAAAGUCCGUAAUCAUUUUAAGGGUA [A47G A51U A62G A68G A69U A82G U122C] was 0.19.
Next, GUUAACGGUCAUAGGCCAUGGAAACUAGGAGCACCAUUUCGCUGCCGGUGAAGAAAUGAACAAGGAAAAUCCGGGCCAGGCAGGCAUCAAAAGAAAUAGUCUUGCGCUCAACCAGAAAGUCUGUAAUCAUUUUAAGGGUA [A47G A64G U72C]: 0.09; GUUAACGGUCAUAGGCCAUGGAAACUAGGAGCACCAUUUCGCUGCCGGUGAAGAAUUGAACAAAGAAAAUCUGGGCCAGGCAGGCAUCAAAAGAAAUAGUCUUGCGCUCAACCAGAAAGUCAGUAAUCAUUUUAAGGGUA [A47G A56U U122A]: 1.01; GUUAACGGUCAUAGGCCAUGGAAACUAGGAGCACCAUUUCGCUGCCGGUGUAGAAGCGAGCAGAGAAAAUCUGGGCCAGGCAGGCAUCAAAAGAAAUAGUCUUGCGCUCAACCAGAAAGUCUGUAAUCAUUUUAAGGGUA [A47G A51U A56G U57C A60G A63G]: 1.19.
For the variant GUUAACGGUCAUAGGCCAUGGAAACUAGGAGCACCAUUUCGCUGCCGGUGAAGAAAUGAACAUAGAAAAUCUGGGCCAGGCAGGCAUCAAAAGAAAUAGUCUUGCGCUCAACCAGAAAGUCUGUAAUCAUUUUAGGGGUA [A47G A63U A135G], the self-cleavage came to 1.48.
Take GUUAACGGUCAUAGGCCAUGGAAACUAGGAGCACCAUUUCGCUGCCGGUGAAGGAAUGAACAAAGAAAAUCUGGGCCAGGCAGGCAUCAAAAGAAAUAGUCUUGCGCCCAACCAGAAAGUCUGUAAUCAUUUUAAGGGUA [A47G A54G U108C]: the self-cleavage turned out to be 0.02.
As for GUUAACGGUCAUAGGCCAUGGAAACUAGGAGCACCAUUUCGCUGCCCGUGAAGAAAUGAACAAAGAAAAUCUGGGCCAGGCAGGCAUCAAAAGAAAUAGUCUGGCGCUCAACCAGGAAGUCUGUAAUCAUUUUAAGGGUA [A47C U103G A116G], the self-cleavage stood at 0.02.
The value for GUUAACGGUCAUAGGCCAUGGAAACUAGGAGCACCAUUUCGCUGCCGGUGAAGAAAUGAACAAAGAAGAUCUGGGCCAGGCAGGCAUCAAAAGAAAUAGUCUUGCGCUCAACCAGAGAGUCUGUAAUCAUUCUAAGGGUA [A47G A68G A117G U132C] was 1.4; that for GUUAACGGUCAUAGGCCAUGGAAACUAGGAGCACCAUUUCGCUGCCGGUGAAGAAAUGAACAAAGAAUAUCUGGGCCAGGCAGGCAUCAAAAGAAAUAGUCUUGCGCUCAACCAGAAAGUCUGUAAUCAUUCUAAGGGUA [A47G A68U U132C] was 0.71.
Next, GUUAACGGUCAUAGGCCAUGGAAACUAGGAGCACCAUUUCGCUGCCGGUGAAGAAAUGAACAAAGAAAGUCUGGGCCAGGCAGGCAUCAAAAGAAAUAGUCUUGCGCUCAACCAGAAAGUCUGUAAUCAUUUUAAGGGAA [A47G A69G U139A]: 0.55; GUUAACGGUCAUAGGCCAUGGAAACUAGGAGCACCAUUUCGCUGCCGGUGAAGAAAUGAACAAGGAAAAUCCGGGCCAAGCAGGCAUCAGAAGAAAUAGUCUUGCGCUCAACCAGAAAGUCUGUGAUCAUUUUAAGGGUA [A47G A64G U72C G79A A90G A125G]: 0.02; GUUAACGGUCAUAGGCCAUGGAAACUAGGAGCACCAUUUCGCUGCCCGUGAAGAAAUGAACAAAGAAAAUCUGGGCCAGGCAGGCAUCAAAAGAAAUAGUCUCGCGCUCAACCAGAAAGUCUGUAAUCAUUUUAAGGGCA [A47C U103C U139C]: 1.53.
Turning to GUUAACGGUCAUAGGCCAUGGAAACUAGGAGCACCAUUUCGCUGCCGGUGAAGUAAUGAACAAAGAAAAUCUGGGCCAGGCAGGCAUCAAAAGAAAUAGUCUUGCGCUCAACCAGAAAGUCUGUAAUCAUCUUAAGGGUA [A47G A54U U131C], the self-cleavage was 1.16.
Regarding GUUAACGGUCAUAGGCCAUGGAAACUAGGAGCACCAUUUCGCUGCCGGUGGAGAAAUGAGCAAAGAAAAUCUGGGCCAGGCAGGCACCAAAAGAAAUAGUCUUGCGCUCAACCAGAAAGUCUGUAAUCAUUUUAAGGGUA [A47G A51G A60G U87C], the self-cleavage was determined as 0.69.
The value for GUUAACGGUCAUAGGCCAUGGAAACUAGGAGCACCAUUUCGCUGCCGGUGAAGAAAUGAACAAAGAGAAUCUAGGCCAGGCAGGCUUCAGAAGGAAUAGUCUUGCGCCCAACCAGAAAGUCUGUAAUCAUUUUAAGGGUA [A47G A67G G73A A86U A90G A94G U108C] was 0.01.
The value for GUUAACGGUCAUAGGCCAUGGAAACUAGGAGCACCAUUUCGCUGCCGGUGAAGAAAUGAACAAAGAAGAUCUGGGCCAGGCGGGCAUCAAAAGAAAUAGUCUUGCGCUCAACCAGGAAGUCUGUAAUCAUUUUAAGGGUA [A47G A68G A82G A116G] was 0.34; that for GUUAACGGUCAUAGGCCAUGGAAACUAGGAGCACCAUUUCGCUGCCGGUGAAGAAAUGAACUAAGAAAAUCUGGGCCAGGCAGGCAUCAAAAGAAACAGUCUUGCGCUCAACCAGAAAGUCUGUAAUCACUUUAAGGGUA [A47G A62U U97C U130C] was 0.62; that for GUUAACGGUCAUAGGCCAUGGAAACUAGGAGCACCAUUUCGCUGCCGGUGAAGAAAUGAACGAAGAAGAUCUGGGCCCGGCAGGCGUCAAAAGAAAUAGUCUUGCGCUCAACCAGAGAGUCUGUAAUCAUUUUAAGGGUA [A47G A62G A68G A78C A86G A117G] was 0.06.
For the variant GUUAACGGUCAUAGGCCAUGGAAACUAGGAGCACCAUUUCGCUGCCGGUGAAGAAAUGAACAAAGAAAAUCUGGGCCAGGCAGGCAUCGAAAGAAAUAGUCUUGCGCUCAGCCAGAAAGUCUGUAAUCAUUUUAAGGGUA [A47G A89G A111G], the self-cleavage stood at 0.03.
Next, GUUAACGGUCAUAGGCCAUGGAAACUAGGAGCACCAUUUCGCUGCCGGUGAAGAAAUGAACAAAGAAAAUCUGGGCCGGGCAGGCAUCAAAAGAAAUAGUCCUGCGCUCAACCAGAAAGUCUGUAAUCAUUUUAAGGGUA [A47G A78G U102C]: 0.22.
The value for GUUAACGGUCAUAGGCCAUGGAAACUAGGAGCACCAUUUCGCUGCCGGUGAAGAAAUGAACAAAGAGAAUCUGGGCCAGGCAGGCAUCAAAAGAAAUAGUCUUGCGCUCAACCGGAAAGUCUGUAAUCAUUUUAAGGGUA [A47G A67G A114G] was 0.45; that for GUUAACGGUCAUAGGCCAUGGAAACUAGGAGCACCAUUUCGCUGCCGGUGAAGUAAUGAACAAAGAAAAUCUGGGCCAGGCAGGCAUCUAAAGAAAUAGACUUGCGCUCAACCAGAAAGUCUGUAAUCAUUUUAAGGGUA [A47G A54U A89U U100A] was 0.8; that for GUUAACGGUCAUAGGCCAUGGAAACUAGGAGCACCAUUUCGCUGCCGGUGGAGAAAUGAACAAAGAAAAUCUGGGCCAGGCAGGCGUCAAAAGAAAUAGUCUUGCGCUCAACCAGAAAGUCUGUAAUCAUUUUAAGGGUA [A47G A51G A86G] was 0.48.
Next, GUUAACGGUCAUAGGCCAUGGAAACUAGGAGCACCAUUUCGCUGCCGGUGAAGAAAUGAACAAAGAAGAUCUGGGCCAGGCAGGCAUCAGAAGAAAUAGUCUUGCGCUCAACCAGAAAGUCUGUAAUCAUUUUAAGGGUA [A47G A68G A90G]: 0.95; GUUAACGGUCAUAGGCCAUGGAAACUAGGAGCACCAUUUCGCUGCCGGUGAGGAAAUGAACAAAGAAGAUCUGGGCCAGGCAGGCAUCAAAAGAAAUAGUCUUGCGCUCAACCAGAGAGUCUGUAAUCAUUUUAAGGGUA [A47G A52G A68G A117G]: 1.5; GUUAACGGUCAUAGGCCAUGGAAACUAGGAGCACCAUUUCGCUGCCGGUGAAGAAAUGAGCAAAGAAAAUCUGGGCCAGGCAGGCAUCAAAAGAAAUAGCCUUGCGCUCAACCAGAAAGUCUGUAAUCAUUUUAAGGGUA [A47G A60G U100C]: 1.51.
With GUUAACGGUCAUAGGCCAUGGAAACUAGGAGCACCAUUUCGCUGCCGGUGAAGGAAUGAACAAAGAGAAUCUGGGCCAGGCAGGCAUCAAAAGAAAUAGUCUUGCGCUCAACCAGAAAGUCUGUAAUCAUUUUAAGGGUA [A47G A54G A67G], the self-cleavage stood at 1.31.
Next, GUUAACGGUCAUAGGCCAUGGAAACUAGGAGCACCAUUUCGCUGCCGGUGAAGAAAUGAACAAAGAAAAUCUGGGCCGGGCAGGCAUCAGAAGAAAUAGUCUUGCGCUCAACCAGAAAGUCUGUAAUCAUUUUAAGGGUA [A47G A78G A90G]: 0.23; GUUAACGGUCAUAGGCCAUGGAAACUAGGAGCACCAUUUCGCUGCCGGUGAAGAAAUGAACAAAGGAAAUCUGGGCCAGGCAGGCAUCAAAAGUAAUAGUCCUGCGCUCAACCAGAAAGUCUGUAAUCAUUUUAAGGGUA [A47G A66G A94U U102C]: 0.43.
As for GUUAACGGUCAUAGGCCAUGGAAACUAGGAGCACCAUUUCGCUGCCCGUGAAGAAAUGAACAAAGAAAAUCUGGGCCAGGCAGGCGUCAAAAGAAAUAGUCUCGCGCUCAACCAGAAAGUCUGUAAUCAUUUUAAGGGUA [A47C A86G U103C], the self-cleavage turned out to be 0.26.
With GUUAACGGUCAUAGGCCAUGGAAACUAGGAGCACCAUUUCGCUGCCGGUGAAGAAGUAAACAAAGAAAAUCUGGGCCAGGCAGGCAUCAAAAGAAAUAGUCUUGCGCUCAACCAGAAAGUCUGUGAUCAUUUUAAGGGUA [A47G A56G G58A A125G], the self-cleavage amounted to 0.
The value for GUUAACGGUCAUAGGCCAUGGAAACUAGGAGCACCAUUUCGCUGCCGGUGAAGAAAUGAACAAAGAAAAUCUGGGCCAGGCAGGCGUCAAAAGAAAUAGUCUUGCGCUCAACCAGAAUGUCUGUAAUCAUUUUAAGGGUA [A47G A86G A118U] was 0.62; that for GUUAACGGUCAUAGGCCAUGGAAACUAGGAGCACCAUUUCGCUGCCCGUGAAGAAAUGAACAAAAAAAAUCUGGGCCAGGCAGGCAUCAAAAGAAAUAGUCUUGCGCUCAACCGGAAAGUCUGUAAUCGUUUUAAGGGUA [A47C G65A A114G A129G] was 0.01.
Next, GUUAACGGUCAUAGGCCAUGGAAACUAGGAGCACCAUUUCGCUGCCGGUGAAGAAAUGAACAAUGAAAAUCUGGGCCAGGCUGGCAUCAAAAGAAAUAGUCUUGCGCUCAACCAGAAAGUCUGUAAUCAUUUUAAGGGUA [A47G A64U A82U]: 0.12; GUUAACGGUCAUAGGCCAUGGAAACUAGGAGCACCAUUUCGCUGCCGGUGAAGAAAUGAACAAAGGAAAUCUGGGCCAGGCAGGCAUCAAAAGAAAUAGUCUUGCACUCAACCAGAAAGUCUGUAAUCAUUUUAAGGGUA [A47G A66G G106A]: 0; GUUAACGGUCAUAGGCCAUGGAAACUAGGAGCACCAUUUCGCUGCCGGUGAAGAAAUGAACGAAGAAAAUCUGGGCCAGGCAGGCAUCAAAAGAAAUAGUCUUGCGCUCAACCAGAAAGUCUGUAAUCAUUUUGAGGGUA [A47G A62G A134G]: 0.34.
The value for GUUAACGGUCAUAGGCCAUGGAAACUAGGAGCACCAUUUCGCUGCCGGUGAAGAGAUGAACAAAGAAAAUCUGGGUCAGGCAGGCAUCAAAAGAAAUAGUCUUGCGCUCAACCAGAAAGUCCGUAAUCAUUUUAAGGGUA [A47G A55G C76U U122C] was 0.08; that for GUUAACGGUCAUAGGCCAUGGAAACUAGGAGCACCAUUUCGCUGCCGGUGAAGUAAUGAACAAAGAAAAUCUGGGCCAGGCAGGCAUCAAAAGAAAUAGUCUUGCGCCCAACCAGAAGGUCUGUAAUCAUUUUAAGGGUA [A47G A54U U108C A118G] was 0; that for GUUAACGGUCAUAGGCCAUGGAAACUAGGAGCACCAUUUCGCUGCCGGUGAAGAAAUGAACAAAGAAAAUCUGGGCCAGGCAGGCGUCAAAAGAAAUAGUCUUGCGCUCAACCAGAAAGCCUGUAAUCAUUUUAAGGGUA [A47G A86G U120C] was 0.45.

Source of the values: the RNAGym collection of RNA variant scans (doi:10.7554/elife.90254).
